Laboratory results from the supplement of paper PMC10300432.
Recombinant human monoclonal antibodies (heavy:light variable regions). ELISA EC50 on the named antigen, from 10 µg/ml down; IC50 against spike pseudovirus on HT1080-ACE2 cells, 48 h; lower = stronger. Calls: IC50 above 1,000 ng/ml = non-neutralizing; EC50 above 1,000 ng/ml = non-binder.

Legend:
[1] = target: SARS-CoV-2 Omicron BA.1 spike pseudovirus; assay: pseudovirus neutralization IC50; higher = weaker neutralization
Description: (§1)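 Single-round luciferase reporter pseudovirus mixed with antibody dilutions and put on HT1080-ACE2 clone 14 cells for 48 h; signal relative to no-antibody wells, four-parameter fit.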

[2] = target: SARS-CoV-2 Omicron BA.4/5 spike pseudovirus; assay: as above
Description: as §1

[3] = target: SARS-CoV-2 Wuhan-Hu-1 spike pseudovirus; assay: as above
Description: as §1

[4] = target: SARS-CoV-2 Wuhan-Hu-1 spike receptor-binding domain; assay: ELISA binding EC50; higher = weaker binding; ELISA of recombinant human antibody on coated antigen, from 10 µg/ml in fourfold dilutions; four-parameter fit.

B1: C5314 (protein)
chain 1: EVQLVQSGPEVKKPGESLKISCKGSGYSFSSYWIGWVRQMPGKGLEWMGIIYPADSDTRYRPSFQGQVTISADKSITTAYLQWSSLKASDTGMYYCASRAAADTFDIWGQGTMVTVSS
chain 2: QSVLTQPPSASGTPGQRVTISCSGSSSNIGSNPVSWYQQVPGTAPKVLVYLNNQRPSGVPDRFSGSKSGTSASLAISGLQSEDEADYYCAAWDDSLNGPWVFGGGTKLTVL
[1]
  pseudovirus neutralization IC50: 137 ng/mL
[2]
  pseudovirus neutralization IC50: 279 ng/mL
[3]
  pseudovirus neutralization IC50: 136 ng/mL
[4]
  ELISA binding EC50: 4.24 ng/mL

B2: C5315 (protein)
chain 1: QLQLQESGPGLVKPSETLSLTCTVSGDSIGSISYYWGWIRQPPGKGLEWIGSIYYSGTIYLNPSLESRVTISLDTSKNQFSLKLRSVTAADTAVYYCARLPLGDLPDYWGQGTLVTVSS
chain 2: EIVLTQSPGTLSLSPGERATLSCRASQSVSSSYFAWYQQKPGQAPRLLIYGAFTRATGIPDRFSGSGSGTDFTLTISRLEPEDFAVYYCQQYGSSPRALTFGGGTKVEIK
[1]
  pseudovirus neutralization IC50: > 1000 ng/mL
[2]
  pseudovirus neutralization IC50: > 1000 ng/mL
[3]
  pseudovirus neutralization IC50: 2.4 ng/mL
[4]
  ELISA binding EC50: 3.71 ng/mL

B3: C5059 (protein)
chain 1: EVQLVEAGGGLIQPGGSLRLSCAASEITVSSNYMSWVRQAPGKGLEWVSLIYSGGSTYYADSVKGRFTISRDSSKNTLYLQMNKLRVDDTAVYFCARVLPFGDYYFDYWGQGTLVTVSS
chain 2: QSVLTQPPSVSAAPGQKVTISCSGGGSNIGNMYISWYQQLPGTAPKLLIYDNNKRPSGIPDRFSGSKSGTSATLVITGLQTGDEADYYCGTWDDSLSVWVFGGGTKLTVL
[1]
  pseudovirus neutralization IC50: > 1000 ng/mL
[2]
  pseudovirus neutralization IC50: 455 ng/mL
[3]
  pseudovirus neutralization IC50: 0.658 ng/mL
[4]
  ELISA binding EC50: 2.75 ng/mL

B4: C5060 (protein)
chain 1: QVQLVESGGGVVQPGRSLRLSCAASGFTFSNYVMHWVRQAPGKGLEWVAVIIYDGSIKYYADSVKGRFTVSRDNSKNTLFLQMNSLRPEDTALYYCAKGGPWSSSTPGIDYWGQGTLVTVSS
chain 2: DIQMTQSPSSLSASAGDRVTVTCQASQDISHYLNWYQQKPGKAPKLLIYDASNLETGVPSRFSGAGSGTHFTFTITNLQPEDFATYYCQQYSNLRLTFGGGTKVEIK
[1]
  pseudovirus neutralization IC50: > 1000 ng/mL
[2]
  pseudovirus neutralization IC50: > 1000 ng/mL
[3]
  pseudovirus neutralization IC50: 804 ng/mL
[4]
  ELISA binding EC50: 4.82 ng/mL

B5: C5062 (protein)
chain 1: QVQLVQSGAEVKRPGSSVKVSCKASGGTFSNYAISWVRQAPGPALEWMGGIIPMFGSAHYAQKFQGRVTITADESTSTAYMELRSLRSEDTAVYYCATRRARRVPAGGGGFHYYGLDVWGQGTTVTVSS
chain 2: DIVMTQSPLSLPVTAGEPASISCRSSQSLLHSNGYNYLDWYLQKPGQSPQLLIYLGSNRASGVPDRFSGSGSDTDFTLNISRVAAEDVGVYYCMQALQTPMYTFGQGTKLEIK
[1]
  pseudovirus neutralization IC50: > 1000 ng/mL
[2]
  pseudovirus neutralization IC50: > 1000 ng/mL
[3]
  pseudovirus neutralization IC50: > 1000 ng/mL
[4]
  ELISA binding EC50: 7.6 ng/mL

B6: C5063 (protein)
chain 1: QVQLVESGGGVVQPGRSLRLSCAASGFTFSSYSMHWVRQAPGKGLDWLAVISDDGTMKFYADSVKGRFTISRDNSNNTLHLQMNSLRAEDTAVYYCARDTDTSRVPDLDYWGQGTLVTVSS
chain 2: DIQMTQSPSSLSASVGDRVTITCRASQGISTYLNWYQQKPGKAPKLLIYAASSLQSGVPSRFSGSGSGTDFTLTISSLQPEDFATYYCQQSYSSPPVTFGQGTRLEIK
[1]
  pseudovirus neutralization IC50: > 1000 ng/mL
[2]
  pseudovirus neutralization IC50: > 1000 ng/mL
[3]
  pseudovirus neutralization IC50: > 1000 ng/mL
[4]
  ELISA binding EC50: 5.81 ng/mL

B7: C5064 (protein)
chain 1: QVQLVESGGNVVQPGRSLRLSCAASGFTFSSYSMHWVRQAPGKGLDWLAVISSDGTMKFYADSVKGRFIISRDNSRKTLHLQMNSLTAEDTALYYCARDTDTSMVTDLDYWGQGTLVTVSS
chain 2: DIQMTQSPSSLSASIGDRVTIICRASQSITTYLNWYQQKPGKAPKLLIYAASTLQSGVPARFSGSGSGTDFTLTISSLQPEDFATYYCQQSYIIPPVTFGQGTRLEIK
[1]
  pseudovirus neutralization IC50: > 1000 ng/mL
[2]
  pseudovirus neutralization IC50: > 1000 ng/mL
[3]
  pseudovirus neutralization IC50: 656 ng/mL
[4]
  ELISA binding EC50: 4.7 ng/mL

B8: C5065 (protein)
chain 1: QVQLVQSGAAVKKPGSSVTVSCEASGGTLSSYTLTWVRQAPGQGLEWMGRLITTLGVEDYAQQFQGRVTITADKSTGTAYLELRSLRSEDTGVYYCAREAGYSGYGAAYYFDSWGQGTLVTVSS
chain 2: QSVLTQPPSVSGAPGQRVTISCTGSNSNIGAGYDVHWYQQLPGTAPKLLIYVNNNRPSGVPDRFSGSKSGTSASLAITGLQAEDEADYYCQTYDSSLSGSLFGGGTKVTVL
[1]
  pseudovirus neutralization IC50: 29.9 ng/mL
[2]
  pseudovirus neutralization IC50: 416 ng/mL
[3]
  pseudovirus neutralization IC50: 13.8 ng/mL
[4]
  ELISA binding EC50: 2.72 ng/mL

B9: C5066 (protein)
chain 1: QVQLVQSGAAVKKPGSSVTVSCEASGGTFSSHTLTWVRQAPGQGLEWLGRIIPILGVADYAQQFQGRVTITADKSTGTAYLELSRLRSEDTGVYYCAREAGYSGYGAAYYFDSWGQGTLVTVSS
chain 2: QSVLTQPPSVSGAPGQRVTISCTGTNSNIGAGYDVHWYQQLPGTAPKLLIYVNSNRPSGVPDRFSGSKSGTSASLAITGLQAEDEADYYCQTYDSSLSGSVFGGGTKLTVL
[1]
  pseudovirus neutralization IC50: 9.61 ng/mL
[2]
  pseudovirus neutralization IC50: 37 ng/mL
[3]
  pseudovirus neutralization IC50: 9.54 ng/mL
[4]
  ELISA binding EC50: 0.354 ng/mL

B10: C5067 (protein)
chain 1: QVQLVESGGGVVQPGRSLRLSCAASGFTFSDYAMHWVRQAPGKGLEWVSVISYDGSNEFHAASVRGRFTISRDNSKNTLSLQTNSLRVEDTAVYYCARESFRSLDYWGRGTLVTVSS
chain 2: DIQMTQSPSSLSASVGDRVTITCRASQSISSYLNWYQQKPGKAPKLLIYGASGLQSGVPSRFSGSGSGTDFTLTISSLQSEDSATYYCQQGFSPLFTFGPGTKVDIK
[1]
  pseudovirus neutralization IC50: 132 ng/mL
[2]
  pseudovirus neutralization IC50: 8.85 ng/mL
[3]
  pseudovirus neutralization IC50: 1.75 ng/mL
[4]
  ELISA binding EC50: 3.51 ng/mL

B11: C5068 (protein)
chain 1: QVQLVESGGGVVQPGRSLRLSCAASGFTFSDYAMHWVRQAPGKGLEWVSVISYDGSNEFHAASVRGRFTISRDNSKNTLFLQMNNLRVEDTAVYYCARESFRSLDYWGRGTLVTVSS
chain 2: DIQMTQSPSSLSASVGDRVTITCRASQSISSYLNWYQQKPGKAPKLLIYGASGLQSGVPSRFSGSGSGTDFTLTISSLQPEDFATYYCQQGFSPLFTFGPGTKVDIK
[1]
  pseudovirus neutralization IC50: 251 ng/mL
[2]
  pseudovirus neutralization IC50: 8.63 ng/mL
[3]
  pseudovirus neutralization IC50: 1.47 ng/mL
[4]
  ELISA binding EC50: 2.08 ng/mL

B12: C5069 (protein)
chain 1: QVQLVQSGAEVKKPGASVKISCKASGYTLTSHYLHWVRQAPGQGLEWMGIINPDGGATTYAQNFQGRLSMTGDTSTSTIYMELSSLRSEDTAVYYCTRGFSFVPDIRGAFDIWGQGTMVTVS
chain 2: DIQMTQSPSTLSAFVGDRVTITCRASQSISRWLAWYQQKPGKAPKLLIYKASSLESGVPSRFSGSGSGTEFTLTISSLQPDDFATYYCQQYNSFTWTFGQGTKVEIK
[1]
  pseudovirus neutralization IC50: > 1000 ng/mL
[2]
  pseudovirus neutralization IC50: > 1000 ng/mL
[3]
  pseudovirus neutralization IC50: > 1000 ng/mL
[4]
  ELISA binding EC50: 8.03 ng/mL

B13: C5070 (protein)
chain 1: QVQLVQSGAEVKKPGASLKVSCKASGYTFTNYYMHWVRQVPGQGLEWMGIINPEAGSTTYAQKFQGRVTMTSDTSTSTLYMELSSLRSDDTAVYYCSRGFSFVPAIRGALHIWGQGTMVTVSS
chain 2: DIQMTQSPSTLSASVGDRVTITCRASQSISTWLAWYQQKPGKAPKLLIYRASSLESGVPSRFSGSGSGTEFTLTINSLQPDDFATYYCQQYNSFTWTFGQGTKVEIK
[1]
  pseudovirus neutralization IC50: > 1000 ng/mL
[2]
  pseudovirus neutralization IC50: > 1000 ng/mL
[3]
  pseudovirus neutralization IC50: > 1000 ng/mL
[4]
  ELISA binding EC50: 6.96 ng/mL

B14: C5071 (protein)
chain 1: QVQLVESGGGVVQPGRSLRLSCAASGFTFSTYVMHWVRQTPDRGLEWVAVISDDGSYKGYSDSLKGRFTISRDNSKNTVFLQMNSLRAEDTAVYYCARDIGAAVAGLIDAFDVWGQGTMVTVSS
chain 2: DIQMTQSPSSLSASVGDTVTITCRASQSITNYLNWYQQKPGKAPKLLIYAASTLQSGVPPRFSGTGSGTDFTLTISSLQPEDFATYYCQQSYTTFMYTFGQGTKLEIK
[1]
  pseudovirus neutralization IC50: > 1000 ng/mL
[2]
  pseudovirus neutralization IC50: > 1000 ng/mL
[3]
  pseudovirus neutralization IC50: > 1000 ng/mL
[4]
  ELISA binding EC50: 3.81 ng/mL

B15: C5072 (protein)
chain 1: QVQLVQSGAEVKKPGSSVKVSCTASGGPFRNNGFSWVRQAPGQGLEWMGVIIPMVGTASYAQKFQGRVTITADESTNTLFMELTTLRSDDTAVYYCARDRHVYGASLFFDYWGQGTLVTVSS
chain 2: DIQMTQSPSSLSASVGDRVTITCRASQTIGSYLNWYQQKPGKAPKVLIYAASTLQSGVPSRFSGSGSGADFTLTISGLQPEDFATYYCQQTYSAPRSFGQGTKLEIK
[1]
  pseudovirus neutralization IC50: 0.482 ng/mL
[2]
  pseudovirus neutralization IC50: > 1000 ng/mL
[3]
  pseudovirus neutralization IC50: 0.254 ng/mL
[4]
  ELISA binding EC50: 2.17 ng/mL
